This passage reports cytotoxicity call and growth inhibition call results from the antibiotic and cytotoxicity screens of Wong et al. (2023).

Structures are written as SMILES. The list shows a part of the results.

One test deals with HSkMC. Kind of test: cytotoxicity call (relative viability < 0.9). To be noted: 10 µM.
Another test has as its system S. aureus RN4220. Nature of the test: growth inhibition call (relative growth <= 0.2). Conditions: 50 µM.

`Nc1nc(=O)c2ncn(COC(CO)CO)c2[nH]1`: in the test on HSkMC, the cytotoxicity call is “inactive”. Besides, the growth inhibition call in the test with S. aureus RN4220 is “inactive”.
Regarding `CN1CCN(C2=Nc3cc(Cl)ccc3Nc3ccccc32)CC1`, the cytotoxicity call in the test on HSkMC is “inactive”. For the same compound, the growth inhibition call with S. aureus RN4220 was “inactive”.
Turning to `COc1ccc(NC(=O)N(C)C[C@@H]2Oc3c(NC(=O)c4cc(C)nn4C)cccc3C(=O)N([C@@H](C)CO)C[C@H]2C)cc1`, the cytotoxicity call in the test on HSkMC is “inactive”. For the same compound, the growth inhibition call with S. aureus RN4220 was “inactive”.
In the case of `COc1ccc(S(=O)(=O)N(C)C[C@H]2Oc3ccc(NC(=O)C4CC4)cc3CC(=O)N([C@@H](C)CO)C[C@@H]2C)cc1`, the cytotoxicity call in the test with HSkMC was “inactive”. In the test with S. aureus RN4220, the growth inhibition call is “inactive”.
With `COc1ccc(CN(C)C[C@H]2Oc3ccc(NS(=O)(=O)c4c(C)noc4C)cc3CC(=O)N([C@H](C)CO)C[C@@H]2C)cc1`, the cytotoxicity call with HSkMC is “inactive”. Moreover, the growth inhibition call in the test on S. aureus RN4220 was “inactive”.
Regarding `O=C(C[C@H]1CC[C@@H]2[C@H](COC[C@@H](O)CN2S(=O)(=O)c2ccc(Cl)cc2)O1)NCCN1CCCC1`, the cytotoxicity call with HSkMC is “inactive”. The growth inhibition call in the test with S. aureus RN4220 was “inactive”.
With `Cc1ccc(S(=O)(=O)N(C)C[C@H]2Oc3ccc(N(C)C)cc3CC(=O)N([C@H](C)CO)C[C@H]2C)cc1`, in the test with HSkMC, the cytotoxicity call is “inactive”. Also, the growth inhibition call in the test on S. aureus RN4220 was “inactive”.
In the case of `C[C@@H]1CN([C@@H](C)CO)C(=O)c2cc(NS(=O)(=O)c3cccs3)ccc2O[C@@H](C)CCCCO[C@H]1CN(C)Cc1ccc2c(c1)OCO2`, the cytotoxicity call in the test with HSkMC is “inactive”. In addition, the growth inhibition call in the test on S. aureus RN4220 was “inactive”.
As for `NC(=O)C1CCOCC1`, in the test on HSkMC, the cytotoxicity call is “inactive”. In addition, in the test with S. aureus RN4220, the growth inhibition call is “inactive”.
On to `C[C@@H]1CN([C@H](C)CO)C(=O)c2cc(NC(=O)c3ccncc3)ccc2O[C@@H](C)CCCCO[C@H]1CN(C)C(=O)Nc1cccc2ccccc12`, for which, in the test on HSkMC, the cytotoxicity call is “active”. Moreover, the growth inhibition call in the test on S. aureus RN4220 was “inactive”.
Take `C[C@@H]1CN([C@H](C)CO)C(=O)c2cc(NS(=O)(=O)c3cn(C)cn3)ccc2O[C@H]1CN(C)Cc1ccc(C(=O)O)cc1`: the cytotoxicity call with HSkMC was “inactive”. Moreover, the growth inhibition call in the test on S. aureus RN4220 is “inactive”.
For the compound `C[C@H]1CN([C@@H](C)CO)S(=O)(=O)c2ccc(C#Cc3ccccc3F)cc2O[C@@H]1CN(C)C(=O)Cc1cccnc1`, the cytotoxicity call in the test with HSkMC was “inactive”. In addition, the growth inhibition call in the test on S. aureus RN4220 is “inactive”.
Consider `Cc1ccc(S(=O)(=O)N(C)C[C@@H]2Oc3cc(Br)ccc3S(=O)(=O)N([C@H](C)CO)C[C@@H]2C)cc1`, for which, in the test on HSkMC, the cytotoxicity call is “inactive”. In addition, the growth inhibition call with S. aureus RN4220 is “inactive”.
As to `C[C@@H]1CN([C@@H](C)CO)C(=O)Cc2cc(NC(=O)Cn3cnnn3)ccc2O[C@@H]1CN(C)S(=O)(=O)c1ccc(F)cc1`, the cytotoxicity call in the test on HSkMC is “inactive”. For the same compound, in the test on S. aureus RN4220, the growth inhibition call is “inactive”.
Turning to `COc1ccccc1OC[C@@H](O)CO`, the cytotoxicity call in the test with HSkMC was “inactive”. Also, the growth inhibition call in the test with S. aureus RN4220 is “inactive”.
Consider `C[C@H]1CN([C@@H](C)CO)C(=O)c2cc(-c3cncnc3)cnc2O[C@H]1CN(C)C(=O)CN1CCOCC1`, for which the cytotoxicity call in the test on HSkMC was “inactive”. In the test with S. aureus RN4220, the growth inhibition call is “inactive”.
With `C[C@H]1CN([C@@H](C)CO)C(=O)Cc2cc(NC(=O)CCCN(C)C)ccc2O[C@@H]1CN(C)C(=O)NC1CCCCC1`, the cytotoxicity call with HSkMC was “inactive”. Further, the growth inhibition call in the test on S. aureus RN4220 was “inactive”.
Consider `C[C@H]1CCCCO[C@@H](CN(C)Cc2ccc(C(F)(F)F)cc2)[C@@H](C)CN([C@@H](C)CO)C(=O)c2cc(NS(=O)(=O)c3ccc(F)cc3)ccc2O1`, for which, in the test on HSkMC, the cytotoxicity call was “inactive”. In addition, the growth inhibition call in the test on S. aureus RN4220 was “inactive”.
As to `C[C@@H]1CN([C@H](C)CO)C(=O)Cc2cc(NS(=O)(=O)c3ccc(Cl)cc3)ccc2O[C@@H]1CN(C)C`, the cytotoxicity call with HSkMC is “inactive”. Further, the growth inhibition call in the test on S. aureus RN4220 is “inactive”.
`CN(C)CC#Cc1ccc([C@@H]2[C@@H](CO)N3C(=O)CN(C(=O)c4cccnc4)C[C@@H]23)cc1`: the cytotoxicity call with HSkMC was “inactive”. Further, in the test with S. aureus RN4220, the growth inhibition call was “inactive”.
For `C[C@H](CO)N1C[C@H](C)[C@@H](CN(C)S(=O)(=O)c2cn(C)cn2)Oc2ccc(N(C)C)cc2CC1=O`, the cytotoxicity call in the test with HSkMC was “inactive”. For the same compound, in the test with S. aureus RN4220, the growth inhibition call is “inactive”.
As for `COc1ccc(S(=O)(=O)Nc2ccc3c(c2)C(=O)N([C@H](C)CO)C[C@H](C)[C@H](CN(C)C(=O)Nc2c(C)noc2C)OCCCC[C@@H](C)O3)cc1`, in the test on HSkMC, the cytotoxicity call is “inactive”. Moreover, the growth inhibition call in the test on S. aureus RN4220 is “inactive”.
As to `C[C@@H]1CCCCO[C@@H](CN(C)CC2CCCCC2)[C@H](C)CN([C@H](C)CO)C(=O)c2cc(NS(=O)(=O)c3ccccc3)ccc2O1`, in the test on HSkMC, the cytotoxicity call was “inactive”. Moreover, in the test with S. aureus RN4220, the growth inhibition call is “inactive”.
On to `C[C@@H]1CN([C@@H](C)CO)C(=O)c2cc(NC(=O)Nc3ccc4c(c3)OCO4)ccc2O[C@H]1CN(C)Cc1ccc(Oc2ccccc2)cc1`, for which the cytotoxicity call with HSkMC is “inactive”. In addition, the growth inhibition call in the test with S. aureus RN4220 was “inactive”.
As to `C[C@H](CO)N1C[C@H](C)[C@H](CN(C)C(=O)Nc2cccc3ccccc23)Oc2ccc(NC(=O)Nc3ccccc3)cc2CC1=O`, in the test on HSkMC, the cytotoxicity call is “inactive”. Further, in the test on S. aureus RN4220, the growth inhibition call is “inactive”.
Turning to `C[C@H](CO)N1C[C@H](C)[C@H](CN(C)C(=O)Nc2ccc(F)cc2)OCCCC[C@H](C)Oc2ccc(NC(=O)c3ccccc3)cc2C1=O`, the cytotoxicity call in the test with HSkMC is “inactive”. The growth inhibition call with S. aureus RN4220 was “inactive”.
Turning to `C[C@@H]1CN([C@H](C)CO)C(=O)c2cc(NC(=O)C3CCCCC3)ccc2O[C@@H](C)CCCCO[C@@H]1CN(C)C(=O)c1ccncc1`, in the test on HSkMC, the cytotoxicity call is “inactive”. In addition, in the test on S. aureus RN4220, the growth inhibition call was “inactive”.
As to `COCC(=O)Nc1ccc2c(c1)C(=O)N(C)C[C@@H](OC)[C@H](C)CN(Cc1ccccc1OC)[C@H](C)CO2`, in the test with HSkMC, the cytotoxicity call was “inactive”. In addition, the growth inhibition call in the test with S. aureus RN4220 was “inactive”.
On to `C[C@H](CO)N1C[C@H](C)[C@H](CN(C)Cc2ccc(-c3ccccc3)cc2)Oc2ccc(NC(=O)Nc3ccc(F)cc3)cc2C1=O`, for which the cytotoxicity call in the test with HSkMC is “inactive”. In addition, in the test with S. aureus RN4220, the growth inhibition call is “inactive”.
For `C[C@@H]1CN([C@H](C)CO)C(=O)Cc2cc(NC(=O)c3ccncc3)ccc2O[C@@H]1CN(C)Cc1ccc2c(c1)OCO2`, the cytotoxicity call in the test with HSkMC is “inactive”. In addition, the growth inhibition call with S. aureus RN4220 was “inactive”.
Take `CC(C)NC(=O)NCC[C@H]1CC[C@H](NC(=O)CN(C)C)[C@H](CO)O1`: the cytotoxicity call in the test on HSkMC (human skeletal muscle cells) was “inactive”. The growth inhibition call in the test with S. aureus RN4220 is “inactive”.
